The campaign covered roughly 310,000 compounds. About 11,000 (3.5%) were called active. This list was built around the results that the source calls inconclusive (neither active nor inactive); the mix of calls is not that of the screen. The call rests on the fitted dose curve; in most records, active means well fitted inhibition curve with a large enough effect; inconclusive means small, poorly fitted or top-dose-only effect, or effect the other way; inactive means flat fitted curve, though single readings scatter. No potency is given beside an inconclusive call; the fits are too rough.
Experiment: VP16 counterscreen qHTS for inhibitors of ROR gamma transcriptional activity;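 further: Gal4-VP16 expression switched on by copper sulfate through the metallothionein promoter; nearly all actives have a fitted effect of over 50% in size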
Details: Drosophila S2 Gal4-VP16 UAS-luciferase, luminescence, 20 h; activity, negative = inhibition: at 53.6 µM (top of the series)
On the % scale 0 is the no-effect control and ±100 the full control effect; potency means the concentration at half of the fitted maximal effect; tags describe the fitted curve by direction and shape.

| SMILES | Potency | activity, negative = inhibition |
| --- | --- | --- |
| CC(C)CC(=O)N1CCN(C(=O)c2ccc(-c3ccccc3)cc2)CC1 | inconclusive [inhibitor, single point] |  |
| Cc1ccc(-n2c(-c3c(-c4ccccc4)noc3C)n[nH]c2=S)cc1 | active: 10 µM |  |
| N#Cc1cc2c(nc1SCC(=O)Nc1nccs1)CCCCC2 | inconclusive [inhibitor, single point] |  |
| CC1CCC/C(=N\NC(=S)NCc2ccccc2)C1 (stereo not given) | inconclusive [inhibitor, single point] |  |
| Cc1ccsc1C(=O)NCC(=O)OCc1ccccc1 | inconclusive [activator, partial curve] |  |
| COc1ncnc2c1cnn2-c1ccccc1 | inconclusive [activator, single point] |  |
| COc1ccc(NC(=S)NC(C)C(c2ccccc2)N2CCOCC2)cc1 (stereo not given) | inconclusive [inhibitor, single point] |  |
| O=[N+]([O-])/C(=C\Nc1ccccc1Cl)S(=O)(=O)c1ccccc1 | inconclusive [inhibitor, single point] |  |
| Cc1nn(C)c(C(=O)NNC(=S)Nc2ccc(F)cc2)c1[N+](=O)[O-] | inconclusive [inhibitor, single point] |  |
| O=C(CSc1nnc(NC(=O)c2ccccc2)s1)NCc1ccco1 | inconclusive [inhibitor, single point] |  |
| O=C(Nc1ccc(F)cc1)c1ccc2c(=O)n(CC3CCCO3)c(=S)[nH]c2c1 (stereo not given) | inconclusive [inhibitor, single point] |  |
| CCN(C(=S)Nc1cc(S(=O)(=O)N2CCOCC2)ccc1Cl)c1cccc2ccccc12 | active: 22.4 µM |  |
| Cc1c(C(=O)Nc2nc3ccccc3[nH]2)oc2ccccc12 | active: 5.01 µM |  |
| COc1ccc(NC(=S)NCCc2ccc(F)cc2)c(OC)c1 | inconclusive [inhibitor, single point] |  |
| COc1ccc(-c2nc(CN3CCCCC3c3nccn3C)c(C)o2)c(C)c1C (stereo not given) | inconclusive [inhibitor, single point] |  |
| Brc1ccc(Nc2c3c(nc4ncnn24)CCC3)cc1 | inconclusive [inhibitor, single point] |  |
| COc1ccc(N2CC(C(=O)Nc3ccncc3)CC2=O)cc1 (stereo not given) |  | inactive: 1.14% |
| COC(=O)CNc1nc(-c2cccnc2)nc2ccccc12 |  | inactive: -14% |
| O=C(Nc1cccc2ccccc12)c1ccc([N+](=O)[O-])s1 | inconclusive [inhibitor, single point] |  |
| O=C(CC(=O)Nc1ccccn1)Nc1ccccn1 |  | inactive: -2.04% |
| CCOc1ccccc1NC(=O)C(Sc1ccccc1)c1ccccc1 (stereo not given) | inconclusive [inhibitor, single point] |  |
| CCCCOC(=O)C[N+](C)(C)CCOC1CC2CCC1(C)C2(C)C (stereo not given) | inconclusive [inhibitor, single point] |  |
| CCOc1ccc(S(=O)(=O)Nc2cc(Cl)ccc2O)cc1 | inconclusive [inhibitor, single point] |  |

| SMILES | Potency | activity, negative = inhibition |
| --- | --- | --- |
| COc1cc2c(cc1O)CCN[C@@]21CS[C@H]2c3c(OC(C)=O)c(C)c4c(c3C(COC1=O)N1C2C2c3c(cc(C)c(OC)c3O)CC([C@@H]1O)N2C)OCO4 (stereo not given in full) | active: 0.447 µM |  |
| O=C(CNc1ccc2ccccc2c1)N/N=C/c1ccc([N+](=O)[O-])o1 | inconclusive [inhibitor, single point] |  |
| CN1C(=O)C(O)(CC(=O)/C=C/c2ccco2)c2cc(Br)ccc21 (stereo not given) |  | inactive: 0.831% |
| O=C(N/N=C\c1ccc[nH]1)C1COc2ccccc2O1 (stereo not given) | inconclusive [inhibitor, single point] |  |
| O=C(/C=C/c1ccncc1)c1ccc2c(c1)OCCO2 | active: 5.01 µM |  |
| O=C(Nc1nc2ccccc2[nH]1)C1CCC1 | inconclusive [inhibitor, partial curve, poor fit] |  |
| Cc1ccc(S(=O)(=O)Nc2ccccc2CNc2ncc(Br)cc2Br)cc1 | inconclusive [inhibitor, single point] |  |
| COc1ccc(NC(=S)NNC(=O)Cn2nc([N+](=O)[O-])cc2C)cc1 | inconclusive [inhibitor, single point] |  |
| O=C(NC(NC(=S)Nc1ccccc1Cl)C(Cl)(Cl)Cl)c1cccc(Cl)c1 (stereo not given) | active: 12.6 µM |  |
| COc1ccc(OC)c(-c2nc3c(C)n[nH]c(=O)c3[nH]2)c1 |  | inactive: -14.3% |
| C[C@@H](C(=O)Nc1nc(-c2ccccn2)cs1)N1C(=O)C2CCCCC2C1=O (stereo not given in full) | inconclusive [inhibitor, single point] |  |
| Cc1cc(C)cc(NC(=S)N2CCCC2)c1 | inconclusive [inhibitor, single point] |  |
| O=[N+]([O-])c1ccc(NC(=S)N2CCN(c3ccccc3)CC2)cc1 | inconclusive [inhibitor, single point] |  |
| Cc1ccc(NC(=O)COC(=O)c2ccc([N+](=O)[O-])o2)cc1S(=O)(=O)N1CCCCC1 |  | inactive: -7.41% |
| Cc1ccc(C)c(/C=N/Nc2nc3ccccc3c(=O)n2O)c1 | inconclusive [inhibitor, single point] |  |
| Cc1ccc(NC(=S)Nc2ccccn2)c(C)c1 | active: 6.31 µM |  |
| COC(=O)c1ccc(-n2ccnc2)cc1 | inconclusive [inhibitor, single point] |  |
| CC(NC(=S)Nc1ccc(Cl)cc1)C(c1ccccc1)N1CCOCC1 (stereo not given) | active: 6.31 µM |  |
| Cc1cc(C)n(CCC(=O)N/N=C/c2c(O)ccc3ccccc23)n1 | inconclusive [inhibitor, full curve] |  |
| CCn1c(=O)c(C(=O)Nc2nc3ccccc3[nH]2)c(O)c2ccccc21 | active: 8.91 µM |  |
| CCc1ccc(NCc2ccc(OC)c(Cn3ccnc3)c2)cc1 | inconclusive [inhibitor, single point] |  |
| COc1ccc(/C=C/C(=O)NC(=S)NNC(=O)c2cccs2)cc1OC | inconclusive [inhibitor, single point] |  |

— PubChem BioAssay AID2546 (National Center for Advancing Translational Sciences (NCATS), 2010)
